# Where “and” joins values, the source holds several entries; their conditions need not be identical. Equal values may be shown once. This is one part of the list. Shown are side measurements of this screen, not its main read-out; they come without a call.
# Legend:
# Assay in all cases: Primary Screen for Target Class Profiling of Small Molecule Inhibitors of Methyltransferases
# [1] = biological target: Glycine N-methyltransferase (Homo sapiens) (UniProt Q14749); conditions: purified enzyme, MTase-Glo SAH luminescence; measured here: GNMT inhibition; at 40 µM; stronger effect = lower value
# In short: (§1)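 Each enzyme was assayed with SAM and its substrate. SAH formation detected by MTase-Glo luminescence; single-point 40 uM screen[…].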
# [2] = biological target: Guanidinoacetate N-methyltransferase (Homo sapiens) (UniProt Q14353); conditions: purified enzyme, MTase-Glo SAH luminescence; measured here: GAMT inhibition; at 40 µM; stronger effect = lower value
# In short: as §1
# [3] = biological target: Histamine N-methyltransferase (Homo sapiens) (UniProt P50135); conditions: purified enzyme, MTase-Glo SAH luminescence; measured here: HNMT inhibition; at 40 µM; stronger effect = lower value
# In short: as §1
# [4] = biological target: Nicotinamide N-methyltransferase (Homo sapiens) (UniProt P40261); conditions: purified enzyme, MTase-Glo SAH luminescence; measured here: NNMT inhibition; at 40 µM; stronger effect = lower value
# In short: as §1
# [5] = biological target: Phenylethanolamine N-methyltransferase (Homo sapiens) (UniProt P11086); conditions: purified enzyme, MTase-Glo SAH luminescence; measured here: PNMT inhibition; at 40 µM; stronger effect = lower value
# In short: as §1
# % is set by controls: 0 for no effect and ±100 for the full control effect.
SMILES,"activity change, negative = inhibition [1]","activity change, negative = inhibition [2]","activity change, negative = inhibition [3]","activity change, negative = inhibition [4]","activity change, negative = inhibition [5]"
COc1cccc(Cn2nc3n(Cc4ccccc4)c(=O)c4ccccc4n3c2=O)c1,-4.45%,3.67%,1.16%,-0.264%,-2.15%
CC1CCN(CC2CCCCCN2C(=O)Nc2ccc3c(c2)OCCO3)CC1 (stereo not given),-2.83%,0.098%,-2%,0.023%,16.5%
CCC/C=C/C=C/C1CC(O)C(O)C(=O)C1CO (stereo not given),4.3%,7.96%,10.6%,-4.77%,7.43%
CCN1c2cc(C(=O)Nc3ccccc3OC)ccc2C(=O)N2CCCCCC21 (stereo not given),-5.22%,-1.24%,-5.92%,-10.5%,13.1%
CCCn1c(=O)c2ccc(C(=O)NC(C)C)cc2n2c(SCC(=O)c3ccccc3)nnc12,1.43%,4.82%,-1.46%,-2.43%,0.409%
COc1ccc(-c2nnc3n(Cc4ccc(F)cc4)c(=O)c4ccccc4n23)c(O)c1,-14.3%,3.2%,7.18%,6.77%,2.76%
Cc1ccc(Cn2c(=O)c3ccccc3n3c(CCC(=O)NCCCN4CCC(C)CC4)nnc23)cc1,-3.04%,0%,-37%,10.1%,0.526%
CC1CCN(CC2CCCN(C(=O)NC3CCCCC3)CC2)CC1 (stereo not given),-2.05%,-2.16%,-3.93%,-2.42%,-4.28%
Cc1ccccc1CCNC(=O)CNC(=O)C1(C)Cn2c(cc3ccccc32)C(=O)N1C (stereo not given),-1.43%,0%,1.56%,-1.88%,-1.25%
Cc1noc(C)c1S(=O)(=O)N1C[C@@H](Oc2cccnc2)C[C@H]1C(N)=O,-2.68%,0.854%,-0.645%,-4.62%,7.17%
O=C(c1ccncc1)N1CCCC(Cc2noc(-c3cnccn3)n2)C1 (stereo not given),-0.861%,1.42%,0.551%,0.069%,15.8%
CSc1ccc(CNC(=O)c2cc3n(n2)CC(C)(C(=O)NCc2ccccc2)N(C)C3=O)cc1 (stereo not given),0.525%,6.89%,5.09%,-1.73%,-0.643%
CCOc1ccc(CCNC(=O)C(CC)n2ccc3cc(S(=O)(=O)N4CCCCC4)ccc32)cc1 (stereo not given),2.51%,0.405%,0.59%,4.88%,0.221%
COc1cccc(CSc2nnc3n(CC(C)C)c(=O)c4ccccc4n23)c1,-1.97%,0.627%,6.17%,-8.66%,3.78%
Cc1ccc(NC2=CC(=O)c3sc(C)nc3C2=O)cc1,-77.3%,-95.7%,-11.6%,-33.9% and -72.2%,-42.1%
CN1C(=O)c2cc(C(=O)NCc3cccc(Cl)c3)nn2CC1(C)C(=O)NC1CCCCCC1 (stereo not given),4.95%,1.84%,8.87%,7.18%,2.94%

SMILES,"activity change, negative = inhibition [1]","activity change, negative = inhibition [2]","activity change, negative = inhibition [3]","activity change, negative = inhibition [4]","activity change, negative = inhibition [5]"
CC1(C)CC(NC(=O)C(=O)Nc2ccc(Br)cc2)CC(C)(C)N1,0.377%,4.03%,8.93%,-9.53%,3.85%
COc1ccc(Cl)cc1N1C(=O)c2cc3sccc3n2CC1(C)C(=O)NC1CCCCCC1 (stereo not given),1.17%,0%,6.25%,6.74%,-0.348%
CC(C)n1c(=O)c2ccc(C(=O)NC3CCCC3)cc2n2c(=O)n(CC(=O)NC3CCCCC3)nc12,6.05%,2.08%,-0.481%,-10.1%,-6.33%
CCOc1ccc(CN2C(=O)c3cc4sc(CC)cc4n3CC2(C)C(=O)NC2CCCCC2)cc1 (stereo not given),3.75%,2.41%,8.16%,9.04%,2.82%
Cc1ccccc1NC(=O)N1Cc2c(sc3c2CCCC3)-n2cccc2C1c1ccccc1 (stereo not given),-2.52%,0%,4.35%,1.48%,4.24%
COc1ccc(-c2ccccc2)cc1NS(=O)(=O)c1cc(Cl)cc(Cl)c1O,-14.7%,-7.18%,1.14%,-31.3%,0.37%
COc1ccc(S(=O)(=O)N2CCCCC2c2nc(C3CC3)n[nH]2)cc1 (stereo not given),7.91%,0.766%,2.52%,1.55%,3.65%
CO[C@]1(NC(=O)CSC(F)F)C(=O)N2C(C(=O)O)=C(CSc3nnnn3CCO)CO[C@H]21,-2.79%,-4.55%,10.7%,-11%,2.67%
COc1cc(NC(=O)O[C@@H]2CC[C@]3(C)C(CC[C@@H](O)[C@H]3CC(=O)N3CC[C@H](NC(C)=O)C3)[C@]2(C)CO)cc(OC)c1 (stereo not given in full),-3.67%,0.219%,1.6%,-5.47%,1.63%
Cc1cc(C)cc(NC(=O)CCc2nnc3n(Cc4ccccc4)c(=O)c4ccccc4n23)c1,-6.82%,4.59%,1.37%,5.43%,-3.24%
O=C(NCc1ccc(F)cc1)c1ccc2c(=O)nc3c(-c4ccc(F)cc4)n[nH]n3c2c1,-12.9%,0.753%,-6.6%,-3.72%,-4.58%
Cc1cc(Cl)ccc1COc1ccnn1-c1cc(C(=O)O)ccn1,-10.7%,-0.398%,-7.88%,-18%,-10.6%
CCCn1c(=O)c2ccc(C(=O)NC3CCCC3)cc2n2c(SCC(=O)NCc3ccccc3)nnc12,-0.468%,4.38%,2.53%,-2.97%,4.24%
OCC(CO[C@@H]1O[C@H](CO)[C@@H](O)[C@H](O)[C@H]1O)c1ccc2c(c1)OCO2 (stereo not given in full),3.42%,0.673%,3.68%,-8.64%,-6.24%
Cc1ccc(S(=O)(=O)c2nnn3c2nc(NCCC(C)C)c2ccccc23)cc1C,-5.96%,-0.984%,-7.13%,-0.449%,-10.7%

# From PubChem BioAssay AID1745853 (National Center for Advancing Translational Sciences (NCATS), 2022)
